# Results taken from patent US20250171518A1, “METHODS FOR PREPARING CELLS FOR ADOPTIVE T CELL THERAPY” (City of Hope, priority 2015, published 2025).
# System: CD8+ CD19CAR T cells
# Assay: 107a degranulation assay / effector function after co-culture with CD19+ LCL cells
# Assay type: cell-based, human
# Conditions: expanded 21 days with or without Akt inhibitor; overnight co-culture with CD19+ LCL; treated versus untreated cells; FIG. 2
compound,measurement,value
"O=c1[nH]c2ccccc2n1C1CCN(Cc2ccc(-c3nc4cc5[nH]cnc5cc4nc3-c3ccccc3)cc2)CC1 [Akt inhibitor VIII, 1,3-dihydro-1-[1-[[4-(6-phenyl-1H-imidazo[4,5-g]quinoxalin-7-yl)phenyl]methyl]-4-piperidinyl]-2H-benzimidazol-2-one]",interferon gamma production and CD107a expression upon CD19 antigen stimulation,equivalent levels
